The record followed here is article PMC4081100.

Only a part is listed here, and it is no random draw. For some of these results: At the low end of the ranking the order means little. Some of the results follow. For some of these results: Construct or isoform of the protein are uncertain.

Assay in all cases: universal protein binding microarray (PBM)
Settings in all cases: transcription factors of Arabidopsis thaliana; high values mean tight binding; most listed sequences are background and not binding sites; double strand, one strand shown

For one test, the target named is GST-NTL6(1-168) (UniProt Q9SCK6).
In another test the target is T1, GST-ANAC055(1-171) (UniProt Q9LDY8).
T1 sequence: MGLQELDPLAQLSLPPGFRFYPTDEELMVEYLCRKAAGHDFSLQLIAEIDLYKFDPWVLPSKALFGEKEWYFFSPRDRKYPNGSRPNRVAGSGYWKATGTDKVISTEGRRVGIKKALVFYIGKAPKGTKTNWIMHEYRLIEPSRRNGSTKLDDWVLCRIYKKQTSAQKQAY

In the next test the target is T2, GST-NAP(1-166) (UniProt O49255).
T2 sequence: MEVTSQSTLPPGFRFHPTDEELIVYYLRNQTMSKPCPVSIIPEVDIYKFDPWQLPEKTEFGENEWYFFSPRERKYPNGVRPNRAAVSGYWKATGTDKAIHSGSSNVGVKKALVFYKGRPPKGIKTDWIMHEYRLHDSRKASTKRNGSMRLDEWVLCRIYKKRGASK

Another test deals with T3, GST-NST2(1-184) (UniProt Q9M274).
T3 sequence: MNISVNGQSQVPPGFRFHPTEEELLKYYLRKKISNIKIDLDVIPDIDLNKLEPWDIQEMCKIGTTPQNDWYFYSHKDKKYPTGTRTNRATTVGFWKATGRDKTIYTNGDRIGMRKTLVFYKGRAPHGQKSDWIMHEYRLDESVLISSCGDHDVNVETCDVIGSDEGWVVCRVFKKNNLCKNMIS

The target in another test is T4, GST-NTL8 NAC domain (UniProt Q9XIN7).
T4 sequence: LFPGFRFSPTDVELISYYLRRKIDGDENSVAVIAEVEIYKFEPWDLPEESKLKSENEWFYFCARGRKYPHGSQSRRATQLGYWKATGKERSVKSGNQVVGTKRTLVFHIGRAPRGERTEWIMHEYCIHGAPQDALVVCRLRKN

For a further test, the target named is T5, GST-SND1(1-203) (UniProt Q9LPI7).
T5 sequence: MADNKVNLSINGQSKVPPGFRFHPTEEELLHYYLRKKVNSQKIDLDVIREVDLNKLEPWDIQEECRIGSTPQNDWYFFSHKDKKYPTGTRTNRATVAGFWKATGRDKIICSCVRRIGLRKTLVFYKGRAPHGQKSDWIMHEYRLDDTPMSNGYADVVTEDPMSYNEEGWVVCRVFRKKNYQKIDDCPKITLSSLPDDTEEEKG

The target in another test is T6, GST-VND7 NAC domain (UniProt Q9C8W9).
T6 sequence: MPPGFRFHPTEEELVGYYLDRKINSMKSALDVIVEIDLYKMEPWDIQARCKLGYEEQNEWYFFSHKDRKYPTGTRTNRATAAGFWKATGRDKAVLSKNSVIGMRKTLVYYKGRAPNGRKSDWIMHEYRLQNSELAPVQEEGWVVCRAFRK

Test [1] has as its target T7, GST-VOZ2 (Arabidopsis thaliana) (UniProt Q9SLB9).
T7 sequence: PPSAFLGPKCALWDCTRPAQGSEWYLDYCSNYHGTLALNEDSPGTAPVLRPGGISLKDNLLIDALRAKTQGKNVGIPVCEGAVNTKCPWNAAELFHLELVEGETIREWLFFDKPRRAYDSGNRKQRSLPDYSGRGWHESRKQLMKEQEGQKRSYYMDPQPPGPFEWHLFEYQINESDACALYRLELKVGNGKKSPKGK

Another test addresses GST-WRKY1(266-371) (UniProt Q9SI37).
Sequence of UniProt Q9SI37 (Q9SI37 266-371): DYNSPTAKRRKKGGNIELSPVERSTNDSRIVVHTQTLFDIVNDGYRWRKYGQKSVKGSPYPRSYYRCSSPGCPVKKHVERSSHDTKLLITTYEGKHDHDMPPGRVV
A further test addresses T8, GST-ANAC092(1-176) (UniProt Q9FKA0).
T8 sequence: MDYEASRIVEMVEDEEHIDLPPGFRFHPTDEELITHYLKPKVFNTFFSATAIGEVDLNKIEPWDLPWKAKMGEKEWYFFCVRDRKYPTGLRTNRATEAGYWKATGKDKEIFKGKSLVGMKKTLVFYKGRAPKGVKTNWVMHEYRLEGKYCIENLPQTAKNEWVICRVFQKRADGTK

Test [2] concerns the target T9, GST-ANAC092(1-285) full length (UniProt Q9FKA0).
T9 sequence: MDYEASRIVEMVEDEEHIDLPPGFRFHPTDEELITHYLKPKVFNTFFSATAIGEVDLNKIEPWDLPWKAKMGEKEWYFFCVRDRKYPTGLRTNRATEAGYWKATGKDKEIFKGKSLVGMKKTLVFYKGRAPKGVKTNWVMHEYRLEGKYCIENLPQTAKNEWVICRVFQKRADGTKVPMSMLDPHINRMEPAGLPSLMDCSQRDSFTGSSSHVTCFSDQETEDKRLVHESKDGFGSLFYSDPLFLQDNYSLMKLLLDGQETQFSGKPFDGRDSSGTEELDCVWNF

The next test deals with T10, GST-ANAC019 NAC domain (UniProt Q9C932).
T10 sequence: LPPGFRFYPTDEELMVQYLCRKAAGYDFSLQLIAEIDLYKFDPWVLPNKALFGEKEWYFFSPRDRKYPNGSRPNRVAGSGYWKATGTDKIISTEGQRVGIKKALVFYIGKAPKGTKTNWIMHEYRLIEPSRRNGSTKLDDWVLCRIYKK

Another test has as its target T11, GST-ATAF1 NAC domain (UniProt Q39013).
T11 sequence: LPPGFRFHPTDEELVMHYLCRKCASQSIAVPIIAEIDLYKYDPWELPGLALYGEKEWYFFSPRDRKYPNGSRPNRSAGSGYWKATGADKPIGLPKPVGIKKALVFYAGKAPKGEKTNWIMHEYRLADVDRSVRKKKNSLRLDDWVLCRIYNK

Take AGGGAAAT: the binding signal is 0.0669 E-score with GST-NTL6(1-168); 0.0389 E-score with GST-ANAC055(1-171); -0.0691 E-score with GST-NAP(1-166); 0.0566 E-score with GST-NST2(1-184); 0.406 E-score in the test with GST-NTL8 NAC domain; -0.02 E-score with GST-SND1(1-203). Also, the binding signal is 0.014 E-score with GST-VND7 NAC domain, 0.0889 E-score in test [1] and -0.153 E-score with GST-WRKY1(266-371).

Turning to ACGTAACT, the binding signal with GST-NTL6(1-168) was 0.174 E-score; with GST-SND1(1-203) it was 0.325 E-score; with GST-VND7 NAC domain, 0.474 E-score; in test [1], 0.0376 E-score; with GST-WRKY1(266-371), -0.0383 E-score.

Turning to AAGCAAAG, the binding signal with GST-ANAC092(1-176) came to 0.302 E-score; with GST-NTL6(1-168) it was 0.342 E-score; in test [2], 0.369 E-score; with GST-NTL8 NAC domain, 0.222 E-score; with GST-SND1(1-203), 0.403 E-score; with GST-VND7 NAC domain it was 0.25 E-score. The binding signal in test [1] is 0.057 E-score; with GST-WRKY1(266-371), 0.019 E-score.

ATTAAGTA: the binding signal in the test with GST-ANAC019 NAC domain is 0.0145 E-score; in the test with GST-NAP(1-166) it was 0.0294 E-score; with GST-NTL8 NAC domain it was 0.0105 E-score; in the test with GST-SND1(1-203), 0.267 E-score; in the test with GST-VND7 NAC domain, -0.0662 E-score; in test [1], 0.117 E-score. The sequence further registered a binding signal with GST-WRKY1(266-371) of -0.0971 E-score.

On to GGTCATAC, for which the binding signal with GST-ANAC092(1-176) is -0.0825 E-score; with GST-NTL6(1-168), -0.0412 E-score; with GST-ANAC019 NAC domain it was -0.0286 E-score; with GST-ANAC055(1-171) it was 0.0279 E-score; in the test with GST-ATAF1 NAC domain, 0.0109 E-score; in test [2], 0.0464 E-score. In addition, the binding signal with GST-NAP(1-166) was 0.108 E-score; with GST-NST2(1-184), -0.064 E-score; in the test with GST-NTL8 NAC domain it was -0.0306 E-score; in the test with GST-SND1(1-203) it was 0.0207 E-score; with GST-VND7 NAC domain, -0.153 E-score; in test [1], -0.00314 E-score.

For the sequence CCAAGCAA, the binding signal in [2] was 0.356 E-score; with GST-NAP(1-166), -0.0807 E-score; with GST-NTL8 NAC domain, 0.0676 E-score; with GST-SND1(1-203) it was 0.405 E-score; with GST-VND7 NAC domain, 0.0241 E-score; in [1] it was 0.0795 E-score. The sequence further registered a binding signal with GST-WRKY1(266-371) of -0.0823 E-score.

As for ATAAGTCA, the binding signal in the test with GST-ANAC092(1-176) was -0.105 E-score; with GST-NTL6(1-168), 0.161 E-score; in the test with GST-ANAC019 NAC domain, -0.187 E-score; with GST-ANAC055(1-171), 0.0197 E-score; with GST-ATAF1 NAC domain, -0.0328 E-score; in the test with GST-NAP(1-166), 0.0206 E-score. Also, the binding signal with GST-NST2(1-184) was 0.02 E-score; in the test with GST-NTL8 NAC domain, -0.17 E-score; with GST-SND1(1-203) it was -0.00925 E-score; in the test with GST-VND7 NAC domain it was -0.0348 E-score; in test [1], -0.116 E-score.

As to CTTGCTTA, the binding signal with GST-ANAC055(1-171) was 0.00374 E-score; with GST-NAP(1-166) it was -0.125 E-score; with GST-NST2(1-184), 0.17 E-score; with GST-NTL8 NAC domain it was 0.194 E-score; with GST-SND1(1-203), 0.437 E-score; with GST-VND7 NAC domain it was 0.0501 E-score. In addition, the binding signal in [1] is -0.0577 E-score; with GST-WRKY1(266-371) it was -0.15 E-score.

For the sequence AACACGCT, the binding signal with GST-NTL6(1-168) was 0.134 E-score; in the test with GST-NTL8 NAC domain, -0.00494 E-score; with GST-SND1(1-203) it was 0.227 E-score; with GST-VND7 NAC domain, 0.142 E-score; in test [1], 0.00831 E-score; with GST-WRKY1(266-371), 0.0117 E-score.
